Laboratory results reported in the supplement of paper PMC11417369.
This is one part of the list.

test system: PfHDP1 homeodomain (GST-tagged); assay: gcPBM binding intensity (ln(normalized median fluorescence intensity)); higher = stronger DNA binding
Procedure, shortened: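 Probes on an Agilent 4 × 180k array were primer-extended, double-stranded and 36 bp long, taken from intergenic genomic regions, with negative controls added. GST-tagged P. falciparum DNA-binding domains from E. coli, about 25 μg on average, were applied to the array for 1 h in 1× PBS containing 1% milk, 0.2 mg/ml BSA, 0.5% salmon testes DNA and 0.03% Triton X-100. Binding intensity, obtained after Alexa488 anti-GST antibody detection and a 488 nm scan, is the highest Masliner-normalised natural-log median intensity across replicate spots of either probe orientation.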

Sequence	gcPBM binding intensity (ln)
TAAGACAATAAATGCTGTACAATTGAATATCTTGGA [XGTACX_site636]	6.27
AAAAGCACAAAAAATACACACACAAAAAATAAAAAA [CACACA_site8545]	6.5
TATATCCCTTAGAATACACACCCATATGAGTGTGAA [CACACA_site8965]	6.36
TAATGATAAATACATACACACAAAAAATGATATATA [CACACA_site7258]	6.48
ACAAAAATTAAATAAAGTACATTTTTAAAATACGTA [XGTACX_site3880]	6.35
AATGTAAAATCTTCATATACATTTAAGTCTGTATTT [TGCATGCA_negctrl_site183]	5.83
ATAAAAAAAAAAACAGTAAAATTATAATTATAATTA [TGCATGCA_negctrl_site356]	6.45
TTAACAAATAAACACACACACACACCCAAAAAAAAA [CACACA_site8068]	6.67
ATATGAAAAAGAACTTGTACTAAAGTGGCATATTAT [XGTACX_site8520]	6.57
CATATATATTTTATTTGTACGTATAAAAAAACAAAA [XGTACX_site4253]	6.62
TAAATACTTGTATATAGTACAAGTTGTTTTTTTTAA [XGTACX_site5643]	5.95
ATTATTTGAAACTATTGTACATTTAAAAACATTTTT [XGTACX_site4896]	6.5
TGGAACCTTTAAAATACACACCCAAATCCTTTGAAA [CACACA_site7671]	6.43
AAAAAAAAAAAAAACACACACATATAAATATAAATA [CACACA_site6972]	6.58
TCATATATTCAAAAATTTAAAGTTAATAAAACTTGA [CACACA_negctrl_site1546]	5.91
ATTGGACTATAAATAGGTACACATATATATATATAT [XGTACX_site7562]	9.33
TTTGTAATAAATAAGAGTACAAGTATGGTTCCACTA [XGTACX_site2579]	6.08
TGTATACATTCTGAATGTACGGAACACCTCATAACT [XGTACX_site7240]	6.4
AATATATGGTTTCATGATATTAAATTCAAAATAATG [CACACA_negctrl_site318]	6.03
TATAAAATGATGATATGTACTTATGTAGTTTTTTTA [XGTACX_site8711]	5.96
TTTTCATTTGTGACAGTGCAAAATGTTATATTAAAA [GTGCAC_site9647]	9.22
AATAATACATCCTTAGTGCAGAAATAAAAATTAAGC [GTGCAC_site9955]	7.44

Sequence	gcPBM binding intensity (ln)
TATTTATTGTGACACTTATATTATTTTATGATTAAA [CACACA_negctrl_site525]	6.53
TTTCAAATTTAATACACACACAAGTATATATTTATC [CACACA_site3947]	6.57
TTGTGTTATCACACGAAGGGGATAAGACATAAATGT [TGCATGCA_negctrl_site368]	6.43
TATATATAAAAACACACACACACACCCTATAATTAT [CACACA_site4063]	7.18
TTATATTATGTTCAATCAAAAATTATTTTTAAAAAA [XGTACX_negctrl_site595]	6.2
TTTTTGTTTGAACACTGTACGTATAAATATAAAAGT [XGTACX_site6476]	6.56
GAAAAAAGAAAAAAAAGTACACACATGTATATTAAT [XGTACX_site5265]	6.48
AATGTGTTTTTTTTTTTTTTTTTTTTCAATCTCTAT [CACACA_negctrl_site794]	6.07
AATGTACACCCACCCACACACAAACAAATATATATA [CACACA_site5521]	7.73
AAAAATAATTATTCGTGTACAAAAAAAAAAATATAA [XGTACX_site439]	6.59
GGAATATATATACATACACACATATATATATATATA [CACACA_site1666]	9.32
ATGCAAATGTGCATCACACACACTAATGGGTATGTA [CACACA_site2893]	9.01
AAAGTAATAATGATTTGTACATATATATATATATAT [XGTACX_site8821]	9.4
AGCTTCATATTATGGAGTACTATTAAAAATAAATAA [XGTACX_site2649]	6.35
AAATATAACATCATCACACACATATACTTTATATGC [CACACA_site1126]	6.4
AGATATTATAAAATATGTACATATATATATATATAT [XGTACX_site2088]	9.22
TAATTAGATTATTTTTGTACATATTATTATAGGTTA [XGTACX_site2077]	6.29
TTATCTTTTTTCGTTTGTACGTAACCATATTACTAT [XGTACX_site8853]	6.6
ATTTTTTATGTTAATGCATGCTCATGTGTATTTCAT [TGCATGCA_site751]	7.72
ATTATACATATTATATGTACATATATAAATAAATAA [XGTACX_site7076]	6.43
TTATTTTTATATTTTAATTTTAAAAAAATTTTAATT [CACACA_negctrl_site777]	5.98
TTTCTATTTATTAATACATGCAAAATAAAGTAAAGT [TGCATGCA_site209]	6.76
